Experimental data as given in publication PMC4336329 (PLoS ONE, 2015).
Screen size: about 310,000 compounds; about 2,200 (0.71%) showed an effect of 50% or more. The effect is printed as a negative number. The list shows a part of the results.

These molecules were tested against human ether-à-go-go-related gene (hERG) potassium channel (human, UniProt Q12809) (assay: primary screen, population patch clamp on CHO cells stably expressing hERG).
Sequence of human ether-à-go-go-related gene (hERG) potassium channel (Q12809 whole entry, looked up): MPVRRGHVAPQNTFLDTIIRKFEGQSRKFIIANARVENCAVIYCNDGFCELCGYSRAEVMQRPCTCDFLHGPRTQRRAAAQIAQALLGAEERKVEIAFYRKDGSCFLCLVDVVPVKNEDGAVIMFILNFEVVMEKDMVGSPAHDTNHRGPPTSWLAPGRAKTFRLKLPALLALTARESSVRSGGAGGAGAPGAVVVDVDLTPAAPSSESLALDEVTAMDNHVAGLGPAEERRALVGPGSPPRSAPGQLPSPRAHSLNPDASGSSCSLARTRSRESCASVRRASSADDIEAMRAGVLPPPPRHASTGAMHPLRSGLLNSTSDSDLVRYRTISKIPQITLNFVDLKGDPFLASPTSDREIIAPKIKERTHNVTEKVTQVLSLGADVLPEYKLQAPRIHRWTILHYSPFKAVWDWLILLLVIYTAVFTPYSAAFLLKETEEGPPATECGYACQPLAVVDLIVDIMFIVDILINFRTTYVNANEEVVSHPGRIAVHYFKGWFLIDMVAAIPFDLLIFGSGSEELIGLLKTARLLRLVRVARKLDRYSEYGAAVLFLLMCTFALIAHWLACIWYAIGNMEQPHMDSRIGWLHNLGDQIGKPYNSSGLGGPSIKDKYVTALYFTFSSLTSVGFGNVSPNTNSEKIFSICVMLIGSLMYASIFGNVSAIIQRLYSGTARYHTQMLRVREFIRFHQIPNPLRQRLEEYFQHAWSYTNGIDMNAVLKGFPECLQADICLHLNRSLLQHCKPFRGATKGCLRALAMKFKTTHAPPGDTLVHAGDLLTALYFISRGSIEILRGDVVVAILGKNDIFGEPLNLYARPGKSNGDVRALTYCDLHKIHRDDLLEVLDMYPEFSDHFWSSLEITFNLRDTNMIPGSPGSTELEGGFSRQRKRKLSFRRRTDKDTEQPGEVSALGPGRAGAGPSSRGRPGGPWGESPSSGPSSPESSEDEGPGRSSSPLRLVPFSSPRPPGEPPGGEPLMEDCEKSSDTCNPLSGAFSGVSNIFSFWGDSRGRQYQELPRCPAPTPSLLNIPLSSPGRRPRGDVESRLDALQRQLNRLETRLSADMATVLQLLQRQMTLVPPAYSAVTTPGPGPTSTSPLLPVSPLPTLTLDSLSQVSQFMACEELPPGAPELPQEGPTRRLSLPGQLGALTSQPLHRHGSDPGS

Row | Compound | hERG current change (%, negative = inhibition) at 1uM
1 | Nc1nc(SCc2cccc(Br)c2)n[nH]1 | 4.66%
2 | Cc1ccc(OC(=O)Nc2ccccc2)cc1 | 11.7%
3 | Cc1ccc(-n2c(SCC(=O)Nc3cc(C)on3)nc3c([nH]c4ccccc43)c2=O)cc1 | 6.78%
4 | COc1ccccc1CN1CC(C(=O)NCc2cc(C)on2)CCC1=O (centres unmarked) | 15.9%
5 | Cc1ccccc1N(C(=O)CCC(=O)Nc1ccccn1)C(C(=O)NC(C)C)c1ccc(F)cc1 (centres unmarked) | 12.2%
6 | COc1ccccc1N1C(=O)c2ccc(C(=O)Nc3nccs3)cc2C1=O | 14.8%
7 | COc1ccccc1NC(=O)CSc1nc(N)c(C#N)cc1C#N | 11.7%
8 | N#Cc1cc2c(nc1SCC1COc3ccccc3O1)CCC2 (centres unmarked) | 9%
9 | CCc1ccc(OCC(=O)Nc2ccc(-c3cc4ccccc4oc3=O)c(OC)c2)cc1 | 1.71%
10 | CC(C)c1ccc(/C=C/C(=O)N2CCc3ccccc3C2)cc1 | 9.04%
11 | COc1ccc2c(c1)c1nc3ccccc3nc1n2Cc1ccc(OC(C)C)c(OC)c1 | 3.75%
12 | CNC(=S)N/N=C/c1cn(Cc2c(F)cccc2Cl)c2ccccc12 | 10.9%
13 | CCOC(=O)N1CCN(C(=O)c2ccc3c(=O)n(CCOC)c(=O)[nH]c3c2)CC1 | 23.8%
14 | COc1cccc(OC)c1C(=O)OCC(=O)N(c1ccccc1)C1CCCCC1 | 4.7%
15 | Cl.N=C(N)Sc1nc(N2CCCCC2)nc(N2CCCCC2)n1 | 21.2%
16 | Fc1ccccc1/C=N/NC(=S)Nc1ccc(Cl)cc1Cl | 6.93%
17 | CC(Oc1cccc(Cl)c1)C(=O)Nc1ccc([N+](=O)[O-])cn1 (centres unmarked) | -12%
18 | CCc1c(O)c(-c2ccccc2)c(=O)n(-c2ccccn2)c1-c1ccccc1 | 11.4%
19 | CC1CC(C)CN(C(=O)c2ccc(CSc3nc4ccncc4[nH]3)cc2)C1 (centres unmarked) | 3.38%
20 | Nc1nnc(SCC(=O)N2CCN(Cc3ccccc3)CC2)s1 | 4.76%
21 | COc1ccccc1CC(=O)NCC(c1ccco1)N1CCCCC1 (centres unmarked) | 10.7%
22 | CC1=C(C)Cc2c(OC(=O)c3ccccc3)ccc(OC(=O)c3ccccc3)c2C1 | 9.73%
23 | CCOC(=O)c1ccc(NC(=S)N2CCSC2c2ccc(OC)cc2)cc1 (centres unmarked) | -1.03%

Row | Compound | hERG current change (%, negative = inhibition) at 1uM
24 | Cc1nn(C(C)C(=O)NCc2cccs2)c(C)c1[N+](=O)[O-] (centres unmarked) | 12.1%
25 | CN(C)S(=O)(=O)c1ccc(NC(=O)CN2C(=O)NC3(CCCC3)C2=O)cc1 | 9.13%
26 | COc1cc(C(=O)OCC(=O)Nc2nnc(-c3ccccc3)o2)cc(OC)c1OC | -1.46%
27 | CCOc1cc(S(=O)(=O)NCc2ccco2)c(OCC)cc1-n1cnnn1 | -1.66%
28 | NC(=O)C1CCN(CC(O)COCc2ccccc2Cl)CC1 (centres unmarked) | 16.3%
29 | Cn1nccc1NC(=O)CSCC(=O)O | 15%
30 | CCOc1ccc(OCc2ccc(C(=O)O)o2)cc1 | 5.61%
31 | Cc1ccc(CN2C3=NCCCN3c3ccccc32)cc1.Cl | -29.6%
32 | CC(C(=O)N1CCOCC1)N1C(=O)C2C3C=CC(C4CC34)C2C1=O (centres unmarked) | 9.09%
33 | NNC(=O)Cn1c(-c2nonc2N)nc2ccccc21 | 11.2%
34 | O=C(Nc1cccnc1Cl)c1cccc(F)c1 | 4.2%
35 | CCCn1c2ccccc2c2cnn(CC(=O)NCCCN3CCCC(C)C3)c(=O)c21 (centres unmarked) | -24%
36 | CCOc1ccc(CNS(=O)(=O)c2ccc3c(c2)CC(=O)N3C)cc1 | 10.9%
37 | CC(=O)Nc1ccccc1-c1nc2cc(C#N)c(C#N)cc2[nH]c1=O | 0.859%
38 | CCN(CC)CCNC(=O)C(=O)NCC1OCCN1S(=O)(=O)c1ccc2c(c1)OCCO2 (centres unmarked) | -11%
39 | C/C(=N\NC(=O)CSc1nc2ccccc2s1)c1ccco1 | 10.5%
40 | CCCCC(c1nnnn1Cc1ccco1)N1CCN(c2nc3ccccc3s2)CC1 (centres unmarked) | -7.19%
41 | O=C(CN1C(=O)NC2(CCCC2)C1=O)Nc1ccccc1 | 10.1%
42 | CC(C)[C@H](NC(=O)c1ccccc1F)C(=O)NCCc1ccccc1 | 13.9%
43 | COC(=O)C1=CN(CC2CCCO2)C=C(C(=O)OC)C1c1ccccc1C(F)(F)F (centres unmarked) | 10.1%
44 | COC(=O)c1ccc(OCC(O)CN2CCc3cc(OC)c(OC)cc3C2c2ccccc2)cc1 (centres unmarked) | -0.14%
45 | O=C(Nc1ccc2oc(=O)ccc2c1)c1ccco1 | -4.43%
46 | O=C(CCC(=O)n1ncc2ccccc21)NCc1ccc(F)cc1 | -11.9%

Row | Compound | hERG current change (%, negative = inhibition) at 1uM
47 | Clc1ccc(-c2ncc3ccccn23)cc1 | 15%
48 | CCOC(=O)c1c(CN2CCN(Cc3ccccc3)CC2)n(C)c2cc(Br)c(OC)cc12 | 17.1%
49 | COc1cc(OC)cc(-c2oc(=O)c3cc(OC)c(OC)cc3c2C#CCCCO)c1 | 11.8%
50 | Brc1cc2[nH]cnc2c2ccccc12 | 11.6%
51 | COc1cccc(NC(=O)Nc2ccc3c(c2)nnn3C)c1 | 10.9%
52 | CCS(=O)(=O)N1CCCC(C(=O)NCCCN(C)Cc2ccccc2)C1 (centres unmarked) | 1.42%
53 | CC(C)(C)NC(=S)NNC(=O)c1ccccc1Cl | 5.78%
54 | COc1ccccc1-c1nc2n(n1)C(c1ccc(Cl)cc1)C(C(N)=O)=C(C)N2 (centres unmarked) | 2.15%
55 | Cc1[nH]nc2c1C(c1ccc3c(c1)OCO3)C(C#N)=C(N)O2 (centres unmarked) | 5.65%
56 | COc1ccc(CCNc2nc(N3CCCCC3)nc(N3CCCCC3)n2)cc1OC | 6.28%
57 | Cc1c(NC(=O)C(C)Sc2nc3ccccc3c(=O)n2CCO)c(=O)n(-c2ccccc2)n1C (centres unmarked) | 4.78%
58 | CCOC(=O)CC(=O)CSc1nc2c(C)c(C)ccc2cc1C | -1.22%
59 | CCOC(=O)NN1C(=O)c2ccccc2NC1c1cccc(O)c1 (centres unmarked) | 0.0873%
60 | O=C(O)C1CCCCC1C(=O)NCCc1ccncc1 (centres unmarked) | 6.57%
61 | O=C(NCC(c1ccco1)N1CCN(c2ccc(F)cc2)CC1)C(=O)NC1CCCCC1 (centres unmarked) | 1.79%
62 | Cc1cc2oc(=O)cc(CN3CCN(S(=O)(=O)c4ccc5c(c4)OCCO5)CC3)c2cc1C | 7.87%
63 | COc1cc(C2C(C#N)=C(N)OC3=C2C(=O)CC(C)(C)C3)cc2c1OCO2 (centres unmarked) | 3.54%
64 | Cc1cc(C(=O)NC2CCCCCCC2)ccc1[N+](=O)[O-] | 13.3%
65 | COc1ccccc1N1CCN(C(=O)c2cc3sccc3n2C)CC1 | 6.31%
66 | COc1ccc(/C=C/C(=O)NC(=S)NNC(=O)Cc2cccs2)cc1 | -8.26%
67 | CCOc1ccccc1NC(=O)C1=C(C)NC(=O)NC1c1cccs1 (centres unmarked) | 22%
68 | CCC(C#CCN1CCCCC1)(CC)OCCC#N | 5.22%
69 | O=C(NCc1ccccc1F)C1CCCN(S(=O)(=O)N2CCOCC2)C1 (centres unmarked) | 28.8%

Row | Compound | hERG current change (%, negative = inhibition) at 1uM
70 | CC(=O)c1ccc(NCC(=O)N2CCN(c3ccccc3)CC2)cc1 | 5.49%
71 | Cc1ccc(S(=O)(=O)N2CCC(C)CC2)cc1 | 14%
72 | Cn1c2c(c(=O)n1-c1ccccc1)CSCC2 | 13.3%
73 | Cc1cc(C)n2nc(C(=O)OCC(=O)N(CC(C)C)CC(C)C)nc2n1 | 8.64%
74 | O=C(NC1CCCCC1)NC1CCN(S(=O)(=O)Cc2ccccc2)CC1 | 4.63%
75 | COc1cccc(NC(=O)COc2cccc3c2CCNC3=O)c1 | 7.53%
76 | O=C1CN=C(c2ccccc2F)c2cc(Cl)ccc2N1 | 2.9%
77 | Cc1nn(-c2ccccc2)c(C)c1NC(=O)COC(=O)c1ccccc1 | 11.2%
78 | CCOC(=O)c1ccccc1NS(=O)(=O)c1c(C)nc2sccn2c1=O | 6.14%
79 | CCC1(C)Cc2c(sc3nc4n(c(=O)c23)CCS4)CO1 (centres unmarked) | -1.79%
80 | COc1ccc(OC)c(N(CC(=O)N2CCCC2)S(=O)(=O)c2ccccc2)c1 | 7.34%
81 | OCCNC(=S)NCCc1ccccc1 | 9.19%
82 | Cc1oc(C(C)(C)C)cc1C(=O)N1CCCC1C(=O)O (centres unmarked) | 9.18%
83 | COc1cccc(CN(C)CC(=O)NCc2ccc(C)cc2)c1.O=C(O)C(=O)O | -18.3%
84 | O=C1CCN(S(=O)(=O)c2ccccc2)CCN1CCOCc1ccc(F)cc1 | 7.79%
85 | CCCc1nnc(NC(=O)CCC(=O)N2CCN(c3nc(C)cc(C)n3)CC2)s1 | 11.2%
86 | COc1nc(OC)nc(N2CCC(C(=O)NC3CC3)CC2)n1 | 22.2%
87 | Cc1ccc(CSc2nnc(-c3ccccc3N)c(=O)[nH]2)cc1 | 22.5%
88 | CC(OC(=O)/C=C/c1ccccc1)C(=O)N1CCc2ccccc21 (centres unmarked) | 8.92%
89 | CCOC(=O)c1cn2c(C)cccc2n1 | 8.3%
90 | Cn1c(/C=N/n2cnnc2)nc2ccccc21 | 9.31%
91 | CSCCC(NS(=O)(=O)c1ccc2ccccc2c1)C(=O)O (centres unmarked) | 17.5%
92 | O=C(Nc1ccc(Br)cc1)C1CCCN1S(=O)(=O)c1cccs1 (centres unmarked) | 13.6%
